According to PubChem BioAssay AID504845 (National Center for Advancing Translational Sciences (NCATS), 2011):
About 150 (0.038%) of roughly 390,000 compounds were called active. Inconclusive means that the source gave no clear call. Such entries were picked first, then a sample of the others. Calls follow the shape of the dose curve; as a rule, active = well fitted inhibition curve with a large enough effect; inconclusive = small, poorly fitted or top-dose-only effect; inactive = no such curve, though single readings can be large or run the other way. Potencies beside an inconclusive call are fits to weak or partial responses and may not hold up.

molecular target: Regulator of G-protein signaling 4 (Homo sapiens) (UniProt P49798); test: Inhibitors of Regulator of G Protein Signaling (RGS) 4: qHTS; details: Transcreener GDP fluorescence polarization, RGS4-accelerated GTP hydrolysis; series mostly up to 114 µM; activity change, negative = inhibition: at the top concentration; also: nearly all actives have a fitted effect of over 75% in size
Summary of the method: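 MLSMR compounds (23 nl, pin-transferred) preincubated 10 min at room temperature with a 500nM (2x) first reagent, then RGS4 at 900nM (2x) plus Transcreener GDP mix added; fluorescence polarization (620/688 nm) read before and after 90 min at 30 °C.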
% is scaled to controls: 0 for no effect and ±100 for the full control effect; potency is read from the fitted curve at half-maximal effect; tags tell the direction and shape of the fitted curve.

Chain of UniProt P49798 (P49798 whole entry, looked up): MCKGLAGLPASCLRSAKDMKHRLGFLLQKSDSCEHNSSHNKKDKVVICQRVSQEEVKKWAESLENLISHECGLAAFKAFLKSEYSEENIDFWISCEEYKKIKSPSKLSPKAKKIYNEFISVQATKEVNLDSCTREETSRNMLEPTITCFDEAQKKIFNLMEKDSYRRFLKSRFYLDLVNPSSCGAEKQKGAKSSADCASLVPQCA

| Compound | Potency | activity change, negative = inhibition |
| --- | --- | --- |
| COC(=O)c1ccc(NC(=O)CSc2nc(=O)cc(N)n2-c2ccccc2)cc1 | inconclusive: 50.1 µM [inhibitor, partial curve, poor fit] | – |
| Cc1ccc(OCCOC(=O)c2nc3nccc(C)n3n2)cc1 | inconclusive: 28.2 µM [inhibitor, full curve, poor fit] | – |
| CCOc1ccc(NC(=O)C(c2ccccn2)N(C(=O)CCl)c2ccc(OC)cc2)cc1 (configuration not stated) | inconclusive: 79.4 µM [inhibitor, partial curve, poor fit] | – |
| COC(=O)C(CCCCNC(=O)c1ccc([N+](=O)[O-])cc1)NC(=O)c1ccc([N+](=O)[O-])cc1 (configuration not stated) | – | inactive: 23.3% |
| Cc1ccc(N=Cc2cc(C)n(C3CCCC3)c2C)cc1 | inconclusive: 89.1 µM [inhibitor, single point] | – |
| CCCCC[C@H](O)CC(=O)CCc1ccc(O)c(OC)c1 | inconclusive: 0.474 µM [inhibitor, partial curve, poor fit] | – |
| COc1ccc(-c2nc3ccccc3n2Cc2ccc(C)cc2)cc1 | – | inactive: -4.94% |
| CN(C)c1cccc(C(=O)NCc2ccc(Cl)cc2)c1 | inconclusive: 39.8 µM [inhibitor, partial curve, poor fit] | – |
| COc1cc(OC)cc(-c2cc(N)n(S(=O)(=O)c3cccc4nsnc34)n2)c1 | inconclusive: 89.1 µM [inhibitor, single point] | – |
| COc1ccc(NC(=O)C2C3CCC(C3)C2C(=O)O)cc1OC (configuration not stated) | inconclusive: 79.4 µM [inhibitor, single point] | – |
| Cc1ccccc1NC(=O)CSCc1nc(N)nc(Nc2ccccc2C)n1 | – | inactive: 5.91% |
| Cc1ccc(CN2C(=O)C(=O)c3cc(Br)cc(C)c32)cc1 | inconclusive: 20 µM [inhibitor, full curve, poor fit] | – |
| COc1ccc(-n2nnc3c(SC(C(C)=O)C(=O)N(C)C)ncnc32)cc1 (configuration not stated) | inconclusive: 79.4 µM [inhibitor, partial curve, poor fit] | – |
| CCCc1cc(=O)[nH]c(N/N=C/C=C\c2ccccc2)n1 | inconclusive: 89.1 µM [inhibitor, single point] | – |
| O=C1C(Cc2ccccc2)Nc2ncnc(N3CCN(c4ccccc4)CC3)c2N1Cc1ccccc1 (configuration not stated) | – | inactive: 7.29% |
| COC(=O)c1ccc(NC(=O)c2c(Br)cnn2C)cc1 | inconclusive: 79.4 µM [inhibitor, partial curve, poor fit] | – |
| COc1ccc(-n2c(-c3ccco3)n[nH]c2=S)cc1 | inconclusive: 89.1 µM [inhibitor, single point] | – |
| C=C(C)C(=O)Nc1cccc(C2=NOC3(C2)C[C@@H](C(N)=O)N(C(=O)/C(C)=C/C)C3)c1 (some centres not stated) | inconclusive: 20 µM [inhibitor, full curve, poor fit] | – |
| Cc1ccsc1/C=N/n1c(-c2ccccc2)n[nH]c1=S | inconclusive: 79.4 µM [inhibitor, partial curve, poor fit] | – |
| COc1ccc2nc(N3CCCC3)c(C#N)cc2c1 | – | inactive: 3.97% |
| Cc1c(C=O)c(Cl)n(C)c(=O)c1C#N | inconclusive: 31.6 µM [inhibitor, partial curve, poor fit] | – |

| Compound | Potency | activity change, negative = inhibition |
| --- | --- | --- |
| COc1ccc(NC(=O)c2ccc(Br)c(S(=O)(=O)N3CCOCC3)c2)cc1 | inconclusive: 79.4 µM [inhibitor, partial curve, poor fit] | – |
| CCc1ccc(S(=O)(=O)NCc2nc3cccnc3n2Cc2ccccc2Cl)cc1 | – | inactive: -18.8% |
| Clc1cccc(Cl)c1CNc1ccc(N2CCCC2)cc1 | inconclusive: 17.8 µM [inhibitor, full curve, poor fit] | – |
| O=C(COc1ccc([N+](=O)[O-])cc1)NNC(=O)Nc1ccc([N+](=O)[O-])cc1 | inconclusive: 50.1 µM [inhibitor, single point] | – |
| O=C(O)c1ccccc1NS(=O)(=O)c1cccc(-n2sc3ccccc3c2=O)c1 | – | inactive: -140% |
| O=C(O)c1cc(S(=O)(=O)Nc2ccc3oc(=O)sc3c2)ccc1O | inconclusive: 44.7 µM [inhibitor, partial curve, poor fit] | – |
| CC(=O)c1sc(N/N=C\c2c(O)ccc3ccccc23)nc1C | inconclusive: 50.1 µM [inhibitor, partial curve, poor fit] | – |
| Cc1ccc(C)c(Nc2nc3c(S(=O)(=O)c4ccc(Br)cc4)nnn3c3ccsc23)c1 | inconclusive: 50.1 µM [inhibitor, partial curve, poor fit] | – |
| O=C(CCN1C(=O)/C(=C\C=C\c2ccccc2)SC1=S)Nc1ccc(C(=O)O)cc1 | inconclusive: 79.4 µM [inhibitor, partial curve, poor fit] | – |
| O=[N+]([O-])c1ccc(O)c(C=NNc2ccc(S(=O)(=O)O)cc2)c1 | inconclusive: 79.4 µM [inhibitor, partial curve, poor fit] | – |
| O=C(O)c1ccc(C=C(c2nc3ccccc3s2)c2nc3ccccc3s2)cc1 | inconclusive: 35.5 µM [inhibitor, full curve, poor fit] | – |
| O=C(c1ccccc1N(Cc1ccccc1)S(=O)(=O)c1ccccc1)N1CCOCC1 | inconclusive: 89.1 µM [inhibitor, partial curve, poor fit] | – |
| Cn1c(=O)c2c(-c3ccccc3Cl)n(Cc3ccc(Cl)cc3)cc2n(C)c1=O | – | inactive: 7.39% |
| CCN1/C(=C/c2ccc3cc(C)cc(C)c3[n+]2CC)Sc2cc(C)ccc21 | inconclusive: 89.1 µM [inhibitor, partial curve, poor fit] | – |
| CCN(c1ccccc1)c1nc2ccsc2c(=O)s1 | – | inactive: 9.21% |
| CC(=O)OCCOc1nc(NC(C)C)nc(NC(C)C)n1 | inconclusive: 100 µM [inhibitor, single point] | – |
| CCC[n+]1c(C)sc2c3c(ccc21)CCCC3 | inconclusive: 17.8 µM [inhibitor, full curve, poor fit] | – |
| O=C(CCN1C(=O)/C(=C/c2ccc(F)cc2)SC1=S)NC1C=CS(=O)(=O)C1 (configuration not stated) | inconclusive: 50.1 µM [inhibitor, partial curve, poor fit] | – |
| CCn1c(SCC(=O)c2ccc(OC)cc2)nnc1C1CC1 | inconclusive: 79.4 µM [inhibitor, partial curve, poor fit] | – |
| CC(C)CC(C)NNC(=O)c1cc2ccccc2[nH]1 (configuration not stated) | inconclusive: 100 µM [inhibitor, single point] | – |
| CN(c1ccccc1)c1ccc(/C=C(\CCC(=O)O)c2nc3ccccc3s2)cc1[N+](=O)[O-] | inconclusive: 79.4 µM [inhibitor, partial curve, poor fit] | – |

| Compound | Potency | activity change, negative = inhibition |
| --- | --- | --- |
| COc1ccc2[nH]c3c(c2c1)CCNC3(C)CCc1ccc(Cl)nc1 (configuration not stated) | inconclusive: 79.4 µM [inhibitor, partial curve, poor fit] | – |
| CCN1CCc2c(sc(NC(=O)c3ccc(S(=O)(=O)N4CCCC4)cc3)c2C(=O)NC)C1 | inconclusive: 50.1 µM [inhibitor, partial curve, poor fit] | – |
| O=C(c1ccc(SCc2cccc(Br)c2)c([N+](=O)[O-])c1)N1CCN(c2ccccn2)CC1 | inconclusive: 70.8 µM [inhibitor, single point] | – |
| C[C@]12c3[nH]c4cc(-c5ccco5)ccc4c3CCN1C(=O)[C@@H](CC(=O)NCCc1ccccn1)C[C@@H]2C(=O)N1CCCCC1 | inconclusive: 100 µM [inhibitor, partial curve, poor fit] | – |
| Cc1cccc(OCCOc2ccccc2C=C(C#N)C#N)c1 | – | inactive: -41.9% |
| O=C(CCCOc1ccccc1)Nc1ccc(Cl)c(S(=O)(=O)N2CCOCC2)c1 | inconclusive: 89.1 µM [inhibitor, single point] | – |
| Cc1c(Cl)cnc(NC(=O)COC(=O)/C=C/c2ccco2)c1Cl | inconclusive: 50.1 µM [inhibitor, partial curve, poor fit] | – |
| Cn1cccc1-c1cc(C(=O)N/N=C/c2cc(Br)ccc2O)[nH]n1 | – | inactive: -22.2% |
| C=CC[n+]1c(-c2ccc(Cl)cc2Cl)csc1Nc1c(C)n(C)n(-c2ccccc2)c1=O | – | inactive: -8.19% |
| Cc1cccn2c(=S)[nH]nc12 | inconclusive: 35.5 µM [inhibitor, partial curve, poor fit] | – |
| Fc1cccc(Cl)c1C1Nc2cccc3cccc(c23)N1 | inconclusive: 70.8 µM [inhibitor, partial curve, poor fit] | – |
| CC(C(=O)Nc1ccc(O)cc1C(=O)O)N1C(=O)/C(=C\c2cccs2)SC1=S (configuration not stated) | inconclusive: 44.7 µM [inhibitor, partial curve, poor fit] | – |
| CSc1nc2ccc(Nc3nc(N4CCOCC4)nc(N4CCOCC4)n3)cc2s1 | inconclusive: 89.1 µM [inhibitor, single point] | – |
| Cc1ccc(C(=O)OCc2cn(-c3ccccc3)nn2)cc1 | inconclusive: 79.4 µM [inhibitor, partial curve, poor fit] | – |
| Cc1ccccc1C(=O)NC(=O)Nc1ccc(-n2nc(C(F)(F)F)cc2C(F)(F)F)cc1 | – | inactive: 5.6% |
| O=c1[nH]c(-[n+]2ccc3ccccc3c2)c(/C=N/N=C(\[O-])c2ccccc2)s1 | inconclusive: 79.4 µM [inhibitor, partial curve, poor fit] | – |
| N#Cc1ccc(C(c2nnnn2Cc2ccccc2)N2CCCC2)cc1 (configuration not stated) | inconclusive: 79.4 µM [inhibitor, partial curve, poor fit] | – |
| Nc1nnc(CC2=CCCCC2)s1 | inconclusive: 89.1 µM [inhibitor, single point] | – |
| O=C(N/N=C\c1ccc(F)cc1)c1cc(OCC(F)(F)F)ccc1OCC(F)(F)F | – | inactive: -4.35% |
| CSc1nc(C)cc(OCCO)n1 | inconclusive: 89.1 µM [inhibitor, single point] | – |
